PubChem BioAssay AID1508642 (National Center for Advancing Translational Sciences (NCATS), 2021)
In all, about 43,000 compounds went through this assay and about 200 (0.47%) were called active. Another 12% or so got no clear call; they are omitted. The call rests on the fitted dose curve; in most records, active means well fitted cell-killing curve with a large enough effect; inconclusive means small, poorly fitted or top-dose-only effect, or effect the other way; inactive means flat fitted curve, though single readings scatter. Some of the results follow.

Experiment: Cell viability qHTS assay in S16 Pmp22-F2sN cells; further: nearly all actives have a fitted effect of over 65% in size
Settings: S16 Pmp22-F2sN Schwann cells (luciferase reporters placed in the Pmp22 gene) viability, CellTiter-Glo, 24 h; series mostly up to 57.5 µM; activity change, negative = cytotoxicity: at the top concentration
In short: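 Luminescence from CellTiter-Glo, read by CCD camera after a 15 min room-temperature incubation, served as the viability signal. Reporter Schwann cells (S16 Pmp22-F2sN) had been treated with pin-transferred compounds for 24 h at 37C.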
On the % scale 0 is the no-effect control and ±100 the full control effect.

SMILES | activity change, negative = cytotoxicity
Cc1nc2ccc(S(=O)(=O)CCC(=O)Nc3ccc(C)c(C)c3)cc2s1 | inactive: -13%
O=C(c1ccco1)n1nc(-c2ccccc2)nc1NCc1ccc(F)cc1 | inactive: 15%
COc1cccc2sc(N(Cc3cccnc3)C(=O)Cc3ccccc3)nc12 | inactive: -5.34%
CCN1CCN(c2cc3c(cc2F)c(=O)c(S(=O)(=O)c2ccc(OC)cc2)cn3CC)CC1 | inactive: -3.42%
Cn1c(C(=O)NCc2ccccc2F)cc2oc3ccccc3c21 | inactive: -20.3%
COc1cc(C(=O)Nc2ccc3[nH]c(=O)sc3c2)cc(OC)c1OC | inactive: 1.51%
CC1=C(C(=O)Nc2cccnc2)C(c2cccc(F)c2)n2nc(SCc3ccccc3)nc2N1 (stereo not drawn) | inactive: 10.1%
CC(C)C(=O)N1c2ncnn2C2(CCCCC2)[C@@H]2CCCC[C@@H]21 | inactive: -20.1%
COc1ccc(C2CC(=O)N(Cc3ccc(F)cc3)c3ccccc3S2)cc1 (stereo not drawn) | inactive: -19.3%
Cc1ccc(S(=O)(=O)N2CCN(Cc3noc(CCC(=O)N4CCCCC4)n3)CC2)c(C)c1 | inactive: -22.4%
CC(C)Cn1c(=O)c2sccc2n2c(CCCC(=O)NCCc3ccccc3)nnc12 | inactive: 15%
COc1cccc(C(=O)NCC(=O)OCc2cc(=O)n3c(C)csc3n2)c1 | inactive: -2.47%
CCN1CCN(c2oc(-c3ccc(COc4ccc(C)cc4)o3)nc2C#N)CC1 | inactive: 5.51%
CCCCNc1ncnc2c1nnn2C | inactive: -22.6%
COc1ccc2oc(-c3cccc(NC(=O)c4ccc(C#N)cc4F)c3)nc2c1 | inactive: 26.6%
CCCCNC(=O)c1ccc2c(c1)NC(=O)C(CS(=O)(=O)Cc1cccc(C)c1)N2 (stereo not drawn) | inactive: 6.45%
COc1cc(C2C(C(=O)OCC(C)C)=C(C)N=C3SCCC(=O)N32)ccc1OCc1ccccc1 (stereo not drawn) | inactive: -3.86%
Cc1cccc(NC(=O)Cn2nnc(C(=O)Nc3ccc(F)c(Cl)c3)c2N)c1 | inactive: 10.1%
COc1cccc(NC(=O)CSc2nc(=O)n(Cc3ccco3)c3c2CCC3)c1 | inactive: 9.94%
Cc1ccc(S(=O)(=O)c2cn(CC(=O)Nc3ccc4c(c3)OCO4)c3ccccc3c2=O)cc1 | inactive: -2.12%
Cc1sc2ncn(CC(=O)N3CCN(c4ccc(F)cc4)CC3)c(=O)c2c1S(=O)(=O)N1CCCCC1 | inactive: 6.47%
Cc1ccc(Nc2nc3c(S(=O)(=O)c4ccccc4)nnn3c3ccsc23)c(C)c1 | inactive: -0.161%
Cc1cccc2sc(N(CCCN(C)C)C(=O)c3ccc(Cl)s3)nc12 | inactive: -3.65%
CC1=C(C(=O)Nc2ccc(C)cc2C)C(C(C)C)n2nc(SCc3ccccc3Cl)nc2N1 (stereo not drawn) | inactive: 12.9%

SMILES | activity change, negative = cytotoxicity
Cc1ccc(Cn2cc(C(=O)c3ccc(F)cc3)c(=O)c3cc4c(cc32)OCCO4)cc1 | inactive: 5.08%
CCc1ccccc1NC(=O)CSCc1cnn(-c2ccccc2)c1-n1cccc1 | inactive: 0.101%
Cc1ccc2ncc3c(-c4ccc(F)cc4)nn(-c4cccc(F)c4)c3c2c1 | inactive: 6.18%
Cc1ccc2c(c1)c1c(c(=O)n(-c3ccccc3C)c(=O)n1CC(=O)N1CCCC1)n2C | inactive: 14.1%
CCOc1ccccc1CNCCNC(=O)c1nonc1N | inactive: -3.84%
O=C(NCCc1ccccc1)C1(c2cccs2)CCOCC1 | inactive: 3.18%
CCN(CC)CCNC(=O)c1nn(-c2ccc(OC)c(Cl)c2)c(=O)c2c1c1ccccc1n2C | inactive: 16.1%
O=C(CSc1nc2c(c(=O)[nH]1)CN(Cc1ccc(F)cc1)CC2)Nc1ccccc1Cl | inactive: 2.53%
CCOC(=O)C1CCN(S(=O)(=O)c2cc3c4c(c2)CC(=O)N4CCC3)CC1 | inactive: -23.2%
CCCNC(=O)c1c(C)nn(-c2cccc(C)c2)c1-n1cccc1 | inactive: 0.125%
COc1cccc(C(=O)N2c3nc(-c4ccco4)nn3C3(CCCCC3)[C@@H]3CCCC[C@@H]32)c1 | inactive: -14.4%
CCCCn1cc2c(c1-c1ccccc1Br)c(=O)n(C)c(=O)n2C | inactive: 3.66%
Cc1nc(N2CCOCC2)c2c(C(=O)NCCc3ccccc3)c(C)oc2n1 | inactive: -1.64%
Cc1ccc(C(=O)n2nc(-c3ccco3)nc2NCc2cccs2)cc1 | inactive: -4.07%
O=C(CCC(=O)N1CC2CCCN2c2ccccc21)NCc1cccc(Cl)c1 (stereo not drawn) | inactive: -6.05%
COc1cc2c(=O)n(Cc3ccccc3Cl)c(=O)n(CC(=O)Nc3ccccc3)c2cc1OC | inactive: 6.91%
COc1ccc(C)cc1NC(=O)C1CCN(S(=O)(=O)c2c(C)noc2/C=C/c2ccco2)CC1 | inactive: 11.2%
COc1cccc(-n2c(-c3ccc(Cl)cc3)cc3c2CC(C)(C)CC3=O)c1 | inactive: -5.61%
O=C(Nc1ccc(F)cc1F)C(Cc1ccccc1)N1Cc2ccccc2C1=O (stereo not drawn) | inactive: -13.9%
COc1ccc(CN2C(=O)c3oc4ccc(F)cc4c(=O)c3C2c2ccc(O)cc2)cc1 (stereo not drawn) | inactive: -0.73%
Cc1ccc(C(=O)Nc2nc3ccc(S(=O)(=O)N4CCCC4)cc3s2)cc1 | inactive: -11.3%
Cc1ccc(-c2nnc(SCC(=O)NC3CCCC3)nc2-c2ccc(C)cc2)cc1 | inactive: -2.21%
CSc1ccc(CNC(=O)C2CCCN(S(=O)(=O)N(C)c3ccc(F)cc3)C2)cc1 (stereo not drawn) | inactive: -0.325%
CCOc1ccc(CCNC(=O)CCCn2c(=O)c3cccn3c3cccnc32)cc1OCC | inactive: 16.7%
